Results reported in PubChem BioAssay AID504884 (Broad Institute, 2011).
The whole screen tested about 360,000 compounds, of which about 230 (0.064%) were called active. This list was built around the results that the source calls inconclusive (neither active nor inactive); the mix of calls is not that of the screen. Cut-off read from the data, not from the text of the source: active = activity above about 50% (passing the limit was not always enough); inconclusive = no clear call, values can overlap the other calls.

tested on: DNA topoisomerase I (Yersinia pestis CO92); test: Yersinia pestis topoisomerase I inhibitors, primary screen, biochemical, cleavage product accumulation, plate reader, single point (AID 504884); settings: Y. pestis Topo-I cleavage product accumulation, at 10 µM, active compounds read high

SMILES | activity
COc1ccc(-c2coc3c(C(=O)NCc4ccccc4)cccc23)c(C)c1 | inconclusive: 51%
CCCOc1ccc(-c2nc3c(c(=O)[nH]c(=O)n3Cc3ccccc3)n2CCO)cc1OCC | inconclusive: 83%
COc1ccc(CN(Cc2cccn2C)C(=O)c2cc3cc(OC)ccc3[nH]2)cc1 | active: 51.1%
Oc1ccc(-c2sc(Nc3ccccc3)n[n+]2-c2ccc(F)cc2)cc1 | inactive: -2.57%
CCc1nn(CC(=O)NCCc2ccc(S(N)(=O)=O)cc2)c(=O)c2cc3sccc3n12 | inconclusive: 54.2%
COc1ccc(C(=O)C2CCCN(Cc3cnc(C)s3)C2)c(OC)c1 (stereo not drawn) | inconclusive: 68.1%
COCCCNC(=O)C[C@H]1C[C@H](C(=O)N2CCOCC2)[C@@]2(CCC3CCCC3)c3[nH]c4cc(-c5ccco5)ccc4c3CCN2C1=O | inconclusive: 51.5%
O=C(c1cc(-c2ccccc2Cl)nc2ccc(Br)cc12)N1CCN(c2ccccn2)CC1 | active: 55.4%
Cc1ccc(N(C(=O)c2snc(C(N)=O)c2N)C(C(=O)NCCC(C)C)c2ccco2)cc1 (stereo not drawn) | inconclusive: 59.3%
CCCC(C(=O)NC(C)(C)C)N(Cc1ccccc1Cl)C(=O)c1snc(C(N)=O)c1N (stereo not drawn) | inconclusive: 50.7%
CCN(CC)c1ccc(C(=O)OCC(=O)Nc2ccccc2-c2ccccc2)cc1 | inconclusive: 53.8%
Cc1ccc2nc(-c3ccc(SCC(=O)O)nc3)[nH]c2c1 | active: 54.9%
O=C(CNC(=O)OCc1ccccc1)OC(c1ccccc1)c1ccccc1 | inconclusive: 54.1%
COc1c(O)c(=O)n2c3ccccc3c3ccnc1c32 | inactive: -1.6%
O=C(CSc1ccc(Cl)cc1)N1CCN(c2c(Cl)cccc2[N+](=O)[O-])CC1 | inconclusive: 52.5%
COc1ccc(N(CC(=O)NCCSc2ccccc2)S(C)(=O)=O)cc1 | inactive: 2.47%
COc1ccc(CN(C)C(=O)CC(c2ccccc2)c2ccccc2)cc1 | active: 51.6%
CCCCCCCCNCCS(=O)(=O)NCc1ccccc1OC | inconclusive: 53.8%
COc1ccc(-n2cc(-c3ccc(OC)c(OC)c3)[nH]c2=S)cc1 | inactive: 6.35%
Cc1ccn2c(Cc3ccccc3)c(-c3ccc(Br)cc3)nc2c1 | inconclusive: 50.6%
Cc1ccc(C)c(NC(=O)c2cnc3n(c2=O)CCS3)c1 | inconclusive: 62.6%

SMILES | activity
Clc1ccc(COC(Cn2ccnc2)c2ccc(Cl)cc2Cl)cc1 (stereo not drawn) | active: 61.9%
Cc1cccc(C)c1NC(=O)CN(C)C(=O)c1cccc(NS(=O)(=O)c2ccccc2)c1 | inconclusive: 75%
COc1cc(-c2nc3ccc4ccccc4c3c3c2CCC3)cc(OC)c1O | inconclusive: 55.5%
CCCCCN(C(=O)NC(=O)Nn1cnnc1)S(C)(=O)=O | inconclusive: 83.7%
Cc1ccc(-c2nnc(NCc3nc4ccccc4[nH]3)c3ccccc23)cc1S(=O)(=O)N1CCCCC1 | inconclusive: 56.3%
Cc1nc(CN2CCN(S(=O)(=O)c3c(Cl)cc(Br)cc3Cl)CC2)cs1 | inconclusive: 55.7%
COCCN(C(=O)c1ccccc1F)c1nc(-c2ccc(OC)cc2)cs1 | inactive: -16.8%
CC(=O)c1ccc(NC(=O)Cn2cnc(S(=O)(=O)N3CCC(C)CC3)c2)cc1 | inconclusive: 51.8%
O=C(CCCOc1ccccc1)N1CCN(S(=O)(=O)c2cccc(F)c2)CC1 | inconclusive: 55.8%
Cc1cc(N2C(=O)C(O)=C(C(=O)c3ccc(C)o3)C2c2ccc(OCc3ccccc3)cc2)no1 (stereo not drawn) | inconclusive: 55.8%
Cc1ccc(OCC(O)CN2CCN(c3ccccc3)CC2)cc1 (stereo not drawn) | inconclusive: 72%
COc1ccc(-c2nnc(SCc3ccccc3F)o2)cc1 | inconclusive: 50%
CCC/C=C/c1ccc(CN2C(C)C(=O)N(Cc3cn(Cc4ccco4)nn3)CCS2(=O)=O)cc1 (stereo not drawn) | inconclusive: 51.7%
COC(=O)C1=C(c2cc3ccccc3o2)C[C@@H]2CC[C@H]1N2C(=O)N1CCCCC1 | inconclusive: 50.9%
Cc1nn(Cc2ccc(Cl)c(Cl)c2)c(C)c1NC(=O)c1cc(-c2ccco2)on1 | inactive: 1.98%
CC(=O)c1cccc(-c2cnc3c(NC=O)cc(-c4ccccc4Oc4ccccc4)cn23)c1 | inconclusive: 51%
Cc1ccc(C(Sc2ccccc2)C(Cn2cncn2)C(=O)c2ccccc2)cc1 (stereo not drawn) | inconclusive: 56%
Cc1ccc2c(c1)c(=O)c(Br)c(C)n2Cc1ccccc1 | inconclusive: 53.1%
COc1ccc2c(-c3ccccc3)cc(SC(C)C(N)=O)nc2c1 (stereo not drawn) | inconclusive: 54.9%
C=CCc1cc(C)ccc1OCCOCCC(C(=O)OCC)C(=O)OCC | inconclusive: 53.8%
Cc1ccc(C(=O)CSc2cc(C)nc(SCC(=O)c3ccccc3)n2)cc1 | inconclusive: 50.2%

SMILES | activity
CCCOc1cccc(C2C(C(=O)c3ccc(C)o3)=C(O)C(=O)N2c2nc(C)c(C(C)=O)s2)c1 (stereo not drawn) | inconclusive: 53.1%
Cc1ccc(Cl)cc1N1CCN(Cc2cc(=O)n3ccsc3n2)CC1 | inconclusive: 116%
O=C(c1ccc2c3c(cccc13)CC2)C1CCCN(Cc2ccncc2)C1 (stereo not drawn) | inconclusive: 50.2%
O=C(CSc1ccc(Cl)cc1)N1CCN(c2ccc(Cl)cc2[N+](=O)[O-])CC1 | inconclusive: 51.5%
CC(=O)Oc1cccc2c1C(=O)C1CC=CC(OC(C)=O)C1C2=O (stereo not drawn) | active: 60.9%
Cc1ccc(SCc2cc(=O)[nH]c(Nc3nc(C)c4ccc(C)cc4n3)n2)cc1 | active: 113%
Cc1ccc(OCc2cc(C(=O)N3CCN(c4ccccc4)CC3)no2)cc1C | inconclusive: 52.9%
CCCOC(=O)c1c(NC(=O)CCCn2nc([N+](=O)[O-])cc2C)sc(C(=O)OC)c1C | inconclusive: 50.5%
O=C1NC(Cc2ccccc2)c2nc3cc(F)ccc3c(=O)n2-c2cc3ccccc3cc21 (stereo not drawn) | inconclusive: 50.5%
C#CCOCCOCCOCCNc1nc(N2CCOCC2)nc(N2CCN(C(=O)CCCCCCCCCCNC(=O)[C@@H](CCSC)n3cc(CCO)nn3)CC2)n1 | inconclusive: 55.4%
NC(=O)[C@H](Cc1cc2ccccc2s1)NC(=O)[C@@H]1CC2(CC(c3cccc(NC(=O)[C@@H]4CCC(=O)N4)c3)=NO2)CN1C(=O)/C=C/c1c(F)cccc1Cl (stereo partly drawn) | inconclusive: 51.4%
Cc1cccc(-c2nc(CN3CCCC(C(=O)NC4CCCC4)C3)c(C)o2)c1 (stereo not drawn) | inconclusive: 58%
Cc1cc(C2=CC(=O)C[C@H](c3ccc(F)cc3)C2)ccc1F | inconclusive: 52.3%
CCCCCCCCCCCCN1C/C(=C\C(=O)OCC)c2cc(C(F)(F)F)ccc2S1(=O)=O | inconclusive: 51.9%
CCc1ccccc1C1=CC(=O)C[C@H](c2ccc(OC)cc2)C1 | inconclusive: 57.4%
CCN(Cc1ccccc1)C(=O)c1oc2ccc(C)cc2c1C | active: 53.4%
CCCCn1c(=O)[nH]c(=O)c2c(C(=O)OCC)cc(-c3cccs3)nc21 | inconclusive: 52.2%
CC(C)CN(C(=O)COC(=O)c1cc2ccccc2cc1O)c1c(N)n(Cc2ccccc2)c(=O)[nH]c1=O | active: 80%
COc1ccc2c(c1)cc(C(=O)N/N=C/c1c(O)c(C(=O)O)cc3ccccc13)n2C | inactive: -12.4%
CCOC(=O)C1CCN(C(=O)/C=C/c2ccccc2OC)CC1 | inconclusive: 61.9%
O=C(CCCc1ccccn1)c1ccc(-c2ccccc2)cc1 | inconclusive: 51.2%

SMILES | activity
COc1cccc(OCc2cc(C(=O)N(Cc3ccccc3)CC3CC3)no2)c1 | inconclusive: 59.6%
CN1CCN(C(=O)c2ccc(N(C)S(=O)(=O)c3cccs3)cc2)CC1 | inconclusive: 221%
O=C(CN1CCCCC1)Nc1cc(Cl)ccc1Oc1ccccc1 | inconclusive: 50.1%
COc1cc(C(=O)N2CCN(c3cc(Cl)ccc3Cl)CC2)cc(OC)c1OC | inconclusive: 58.6%
CCC(=O)Nc1cccc(C2=NOC3(C2)C[C@@H](C(N)=O)N(C(=O)c2ccccc2C(=O)c2ccccc2)C3)c1 (stereo partly drawn) | inconclusive: 64.8%
Cc1cccc(C(=O)N(Cc2nc3ccccc3c(=O)[nH]2)C2CCCCC2)c1 | active: 53.8%
Cc1ccc(N2C(=O)N(CC(=O)NC(N)=O)C(=O)C2C)cc1 (stereo not drawn) | inconclusive: 107%
CCOC(=O)c1nn(-c2cccc(C)c2)cc1C(=O)c1ccccc1 | active: 67.3%
CN(C)c1ccc(CCc2ccc(N)cc2)cc1 | inactive: -2.85%
CN(C(=O)c1cccc(COc2ccc(Cl)cc2Cl)c1)c1ccccc1 | active: 51.4%
Cc1cc(C)c(S(=O)(=O)NCC(c2ccco2)N2CCc3ccccc3C2)c(C)c1 (stereo not drawn) | inconclusive: 56.9%
c1ccc(-c2nc(N3CCOCC3)c3ccccc3n2)nc1 | inactive: 1.59%
COc1ccc(-c2nc3c(c(=O)[nH]c(=O)n3Cc3ccccc3)n2Cc2ccccc2)cc1 | active: 64.5%
COc1cc2ccccc2cc1C(=O)Nc1ccc(C)cc1 | inactive: -4.29%
CC1(C)CC(=O)C=C(c2ccc(Oc3ccccc3)cc2)C1 | inconclusive: 53.7%
S=C(Cc1ccccc1)Nc1ccccc1 | inconclusive: 57%
Cc1ccc(CSc2nc3c(c(N(C)C)n2)CCCC3)cc1 | active: 58.8%
CCCCCc1c(C)nc(Nc2nc(C)c3cc(OC)ccc3n2)[nH]c1=O | inconclusive: 72.4%
COc1ccccc1C(=O)NCCC(=O)N1CC=C(c2ccccc2)CC1 | active: 132%
CC(=O)c1ccc(N2CCN(C(=O)c3ccc(Cl)c(NC4=NC5CS(=O)(=O)CC5S4)c3)CC2)cc1 (stereo not drawn) | inactive: 8.97%
